Experimental data reported in the supplement of paper PMC6660600, “Odorant Inhibition in Mosquito Olfaction” (iScience, 2019).
This is one part of the list. Most values come without repeats; read them as rough.

What follows are compounds tested on CquiOR32-CquiOrco (assay: current response class (signed ordinal: positive = inward/excitatory, negative = outward/inhibitory) (ordinal score (-3..3)); higher = stronger inward (excitatory) current). Conditions: 1 mM; holding potential (mV): -80.
`CCCCCCCC(C)=O` [2-nonanone] was tested, and the current response class was inactive: 0.
`CCCCCCC=O` [heptanal] was tested, and the current response class was inactive: 0.
`CC/C=C\CCOC(C)=O` [(Z)-3-hexenyl acetate] was tested, and the current response class was active: 1.
With `CC1=CCC(=C(C)C)CC1` [terpinolene] the current response class was active: -1.
For `CCCCCC(=O)OC` [methyl hexanoate], the current response class was inactive: 0.
`CC(=O)OC/C=C(\C)CCC=C(C)C` [geranyl acetate] was tested, and the current response class was inactive: 0.
In the case of `CCCCCCCCOC(C)=O` [octyl acetate], the current response class is reported as inactive: 0.
For `CCCCOCCO` [2-butoxyethanol], the current response class was active: 1.
In the case of `CCCCCCCC(C)O` (configuration not stated) [2-nonanol], the current response class is reported as inactive: 0.
In the case of `CCCC(=O)OCC` [ethyl butyrate], the current response class is reported as inactive: 0.
For `Cc1ccc(C(C)C)cc1O` [carvacrol], the current response class was inactive: 0.
`CCCCCO` [1-pentanol] was tested, and the current response class was inactive: 0.
With `C=CC1(C)CCC(C(C)(C)O)O1` (configuration not stated) [linalool oxide] the current response class was active: -2.
In the case of `CC1=CC[C@@H](C(C)(C)O)CC1` [α-terpineol], the current response class is reported as active: -1.
In the case of `CCCC(C)=O` [2-pentanone], the current response class is reported as active: 1.
`CCCCCCC(C)O` (configuration not stated) [2-octanol] was tested, and the current response class was inactive: 0.
In the case of `CCCCCCCCCCC=O` [undecanal], the current response class is reported as inactive: 0.
For `OC/C=C/c1ccccc1` [cinnamyl alcohol], the current response class was inactive: 0.
In the case of `CC(=O)CCC=C(C)CCC=C(C)C` [geranylacetone], the current response class is reported as inactive: 0.
In the case of `CC(C=O)Cc1ccc(C(C)(C)C)cc1` (configuration not stated) [lilial], the current response class is reported as inactive: 0.
In the case of `C/C=C(\C)C=O` [(E)-2-methyl-2-butenal], the current response class is reported as active: 2.
With `CC(C)=CCC/C(C)=C/CO` [geraniol] the current response class was active: -1.
